Laboratory results from the supplement of paper PMC4967469.
Lines with a small IC50 respond at low doses; fits outside the tested doses are given as limits. The AUC spans the tested range (256-fold, ending at the top dose) of the same fit: 1 means no effect, lower means more sensitive. For part of these data: Where the top dose is marked as inferred, it is not printed in the source and was worked back from the curve model.

Columns and labels:
Assay in all cases: Viability of human cancer cell lines after 72 h of drug (GDSC screen)
Roscovitine = compound: CC[C@H](CO)Nc1nc(NCc2ccccc2)c2ncn(C(C)C)c2n1 [Roscovitine]; settings: top dose 16 µM; top dose inferred
Protocol: (§1)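 Human cancer cell lines in 384-well plates, medium with 10% serum, drug for 72 h over a 256-fold dose range (nine 2-fold or five 4-fold steps up to the top dose). Adherent lines were fixed and stained with the nucleic acid dye Syto60, suspension lines read with resazurin; signal relative to control wells, capped at 0 and 100%. One two-parameter sigmoid per drug and line, fitted in a mixed model over all curves with the slope shared within a line.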

NVP-BHG712 = compound: Cc1ccc(C(=O)Nc2cccc(C(F)(F)F)c2)cc1Nc1nc(-c2cccnc2)nc2c1cnn2C [NVP-BHG712]; settings: top dose 10.24 µM; top dose inferred
Protocol: as §1

Mitomycin C = compound: CO[C@@]12[C@H](COC(N)=O)C3=C(C(=O)C(C)=C(N)C3=O)N1C[C@@H]1N[C@@H]12 [Mitomycin C]; settings: top dose 16 µM
Protocol: as §1

Midostaurin = compound: CO[C@@H]1[C@H](N(C)C(=O)c2ccccc2)C[C@H]2O[C@]1(C)n1c3ccccc3c3c4c(c5c6ccccc6n2c5c31)C(=O)NC4 [Midostaurin]; settings: top dose 0.512 µM; top dose inferred
Protocol: as §1

IOX2 = compound: O=C(O)CNC(=O)c1c(O)c2ccccc2n(Cc2ccccc2)c1=O [IOX2]; settings: top dose 0.1 µM; top dose inferred
Protocol: as §1

Bosutinib = compound: COc1cc(Nc2c(C#N)cnc3cc(OCCCN4CCN(C)CC4)c(OC)cc23)c(Cl)cc1Cl [Bosutinib]; settings: top dose 2 µM
Protocol: as §1

Cell Line	AUC (Roscovitine)	IC50 (Roscovitine)	AUC (NVP-BHG712)	IC50 (NVP-BHG712)	AUC (Mitomycin C)	IC50 (Mitomycin C)	AUC (Midostaurin)	IC50 (Midostaurin)	AUC (IOX2)	IC50 (IOX2)	AUC (Bosutinib)	IC50 (Bosutinib)
HCC-33 (small cell lung carcinoma, adherent)	0.957	> 16 µM	0.972	> 10.2 µM	0.599	1.87 µM	0.987	> 0.512 µM				
JAR (urogenital system, adherent)	0.891	> 16 µM	0.988	> 10.2 µM	0.748	5.05 µM	0.987	> 0.512 µM	0.959	> 0.1 µM		
NB7 (neuroblastoma, adherent)	0.983	> 16 µM	0.942	> 10.2 µM	0.603	1.95 µM	0.906	> 0.512 µM	0.92	> 0.1 µM		
TALL-1 (T-cell lymphoblastic leukaemia, suspension)	0.935	> 16 µM	0.969	> 10.2 µM	0.639	2.37 µM	0.99	> 0.512 µM				
NOMO-1 (acute myeloid leukaemia, suspension)	0.909	> 16 µM	0.744	3.58 µM			0.972	> 0.512 µM	0.98	> 0.1 µM	0.847	1.79 µM
HAL-01 (lymphoblastic leukaemia, suspension)	0.966	> 16 µM	0.694	2.09 µM	0.123	0.0777 µM			0.983	> 0.1 µM	0.846	1.21 µM
CAL-148 (breast, suspension)	0.95	> 16 µM	0.984	> 10.2 µM	0.106	< 0.0625 µM	0.93	> 0.512 µM				
NCI-H2196 (small cell lung carcinoma, adherent)	0.982	> 16 µM	0.885	> 10.2 µM	0.477	0.865 µM	0.973	> 0.512 µM				
NB5 (neuroblastoma, adherent)	0.971	> 16 µM	0.844	7.47 µM	0.426	0.625 µM			0.981	> 0.1 µM	0.981	> 2 µM
TK (B-cell lymphoma, suspension)	0.978	> 16 µM	0.897	> 10.2 µM			0.935	> 0.512 µM	0.982	> 0.1 µM	0.982	> 2 µM
TE-10 (oesophagus, adherent)	0.932	> 16 µM	0.985	> 10.2 µM	0.158	0.0916 µM	0.923	> 0.512 µM	0.981	> 0.1 µM		
H-EMC-SS (chondrosarcoma, adherent)	0.945	> 16 µM	0.702	2.83 µM	0.508	1.06 µM	0.899	> 0.512 µM				
NCI-H1355 (lung adenocarcinoma, adherent)	0.932	> 16 µM	0.978	> 10.2 µM	0.266	0.157 µM	0.885	> 0.512 µM	0.971	> 0.1 µM		
SU-DHL-8 (B-cell lymphoma, suspension)	0.832	9.25 µM	0.565	0.95 µM	0.216	0.158 µM	0.897	> 0.512 µM	0.985	> 0.1 µM		
KP-N-YN (neuroblastoma, adherent)	0.972	> 16 µM	0.969	> 10.2 µM			0.96	> 0.512 µM	0.966	> 0.1 µM	0.986	> 2 µM
MZ7-mel (melanoma, adherent)	0.975	> 16 µM	0.505	0.661 µM	0.382	0.467 µM	0.945	> 0.512 µM	0.984	> 0.1 µM		
RL95-2 (endometrium, adherent)	0.943	> 16 µM	0.881	> 10.2 µM			0.873	0.485 µM	0.985	> 0.1 µM	0.905	> 2 µM
DMS-114 (small cell lung carcinoma, adherent)	0.959	> 16 µM	0.973	> 10.2 µM			0.984	> 0.512 µM	0.964	> 0.1 µM	0.985	> 2 µM
H9 (lymphoid neoplasm, suspension)	0.963	> 16 µM	0.753	2.88 µM			0.871	0.341 µM	0.988	> 0.1 µM	0.981	> 2 µM
ES5 (Ewing sarcoma, adherent)	0.98	> 16 µM	0.869	> 10.2 µM	0.545	1.35 µM	0.92	> 0.512 µM	0.975	> 0.1 µM		
ATN-1 (T-cell lymphoblastic leukaemia, suspension)	0.936	> 16 µM	0.899	> 10.2 µM	0.288	0.264 µM			0.986	> 0.1 µM	0.765	0.689 µM
SU-DHL-1 (anaplastic large cell lymphoma, suspension)	0.972	> 16 µM	0.928	8.15 µM	0.214	0.201 µM	0.997	> 0.512 µM				
NCI-H1975 (lung adenocarcinoma, adherent)	0.904	> 16 µM	0.955	> 10.2 µM	0.457	0.749 µM			0.978	> 0.1 µM	0.848	1.84 µM
CMK (acute myeloid leukaemia, suspension)	0.949	> 16 µM	0.923	> 10.2 µM	0.095	0.0635 µM			0.99	> 0.1 µM	0.975	> 2 µM
LB996-RCC (kidney, adherent)	0.943	> 16 µM	0.95	> 10.2 µM	0.098	< 0.0625 µM	0.904	> 0.512 µM	0.975	> 0.1 µM		
KG-1 (acute myeloid leukaemia, suspension)	0.985	> 16 µM	0.825	5.28 µM	0.406	0.568 µM			0.989	> 0.1 µM		

Cell Line	AUC (Roscovitine)	IC50 (Roscovitine)	AUC (NVP-BHG712)	IC50 (NVP-BHG712)	AUC (Mitomycin C)	IC50 (Mitomycin C)	AUC (Midostaurin)	IC50 (Midostaurin)	AUC (IOX2)	IC50 (IOX2)	AUC (Bosutinib)	IC50 (Bosutinib)
RS4-11 (leukaemia, suspension)	0.886	15.1 µM	0.85	6.78 µM	0.124	0.0734 µM			0.988	> 0.1 µM		
UACC-812 (breast, adherent)	0.985	> 16 µM	0.947	> 10.2 µM	0.818	8.61 µM	0.991	> 0.512 µM				
A3-KAW (B-cell lymphoma, suspension)	0.79	5.59 µM	0.721	2.32 µM			0.891	0.386 µM	0.992	> 0.1 µM	0.983	> 2 µM
SIG-M5 (acute myeloid leukaemia, suspension)	0.828	6.73 µM	0.188	0.106 µM	0.069	0.0661 µM	0.81	0.192 µM				
NK-92MI (lymphoid neoplasm, suspension)	0.922	> 16 µM			0.205	0.147 µM	0.752	0.159 µM				
D-247MG (glioma, adherent)	0.836	> 16 µM	0.88	> 10.2 µM			0.773	0.276 µM	0.974	> 0.1 µM	0.98	> 2 µM
NCI-H2171 (small cell lung carcinoma, suspension)	0.978	> 16 µM	0.991	> 10.2 µM	0.58	1.61 µM	0.916	> 0.512 µM				
HCC1599 (breast, suspension)	0.896	> 16 µM	0.828	7.61 µM	0.353	0.368 µM	0.898	> 0.512 µM				
IST-MES1 (mesothelioma, adherent)	0.979	> 16 µM	0.916	> 10.2 µM	0.716	4.12 µM	0.92	> 0.512 µM	0.934	> 0.1 µM		
TE-441-T (rhabdomyosarcoma, adherent)	0.947	> 16 µM	0.961	> 10.2 µM	0.559	1.44 µM	0.923	> 0.512 µM				
ES3 (Ewing sarcoma, adherent)	0.918	> 16 µM	0.926	> 10.2 µM	0.078	< 0.0625 µM	0.931	> 0.512 µM	0.983	> 0.1 µM		
BC-3 (B-cell lymphoma, suspension)	0.9	> 16 µM	0.928	> 10.2 µM	0.267	0.237 µM	0.881	0.436 µM				
RPMI-8402 (T-cell lymphoblastic leukaemia, suspension)	0.891	13.3 µM	0.7	2.1 µM			0.912	> 0.512 µM	0.989	> 0.1 µM	0.931	> 2 µM
KOPN-8 (B-cell leukaemia, suspension)	0.948	> 16 µM	0.598	1.14 µM			0.91	> 0.512 µM	0.989	> 0.1 µM	0.929	> 2 µM
HT-144 (melanoma, adherent)	0.924	> 16 µM	0.941	> 10.2 µM	0.141	0.0632 µM	0.85	0.461 µM	0.979	> 0.1 µM		
SCC-3 (B-cell lymphoma, suspension)	0.887	9.45 µM	0.997	> 10.2 µM	0.114	0.107 µM	0.997	> 0.512 µM				
SCC-15 (head and neck, adherent)	0.96	> 16 µM	0.952	> 10.2 µM	0.45	0.695 µM	0.872	> 0.512 µM	0.978	> 0.1 µM		
D-336MG (glioma, adherent)	0.95	> 16 µM	0.896	> 10.2 µM			0.695	0.133 µM	0.899	> 0.1 µM	0.939	> 2 µM
LNCaP-Clone-FGC (prostate, adherent)	0.971	> 16 µM	0.904	> 10.2 µM	0.381		0.977	> 0.512 µM	0.873	> 0.1 µM		
SW872 (soft tissue, adherent)	0.977	> 16 µM	0.978	> 10.2 µM	0.034	< 0.0625 µM	0.854	0.345 µM	0.986	> 0.1 µM		
BC-1 (B-cell lymphoma, suspension)	0.855	9.91 µM	0.862	6.73 µM			0.87	0.361 µM	0.98	> 0.1 µM	0.989	> 2 µM
TC-71 (Ewing sarcoma, adherent)	0.992	> 16 µM	0.91	10.2 µM	0.52	1.12 µM			0.992	> 0.1 µM		
P32-ISH (Burkitt lymphoma, suspension)	0.99	> 16 µM	0.599	1.12 µM			0.857	0.262 µM	0.992	> 0.1 µM	0.932	1.92 µM
NCI-H748 (small cell lung carcinoma, suspension)	0.91	> 16 µM	0.972	> 10.2 µM	0.192	0.0893 µM	0.941	> 0.512 µM				
PSN1 (pancreas, adherent)	0.908	> 16 µM	0.704	2.16 µM	0.065	< 0.0625 µM			0.991	> 0.1 µM	0.983	> 2 µM
